This is one part of the list. Binding of human antibodies (heavy:light variable regions, tested as scFv in one mRNA-display pool) to influenza hemagglutinin, with or without the stem antibody CR9114 bound first. Score = (mean enrichment − median) / interquartile range of that screen; higher = more enriched, 0 = typical non-binder. Active = above the paper's cut-off per screen: stems 28; unblocked H1 Solomon Islands 5, H1 Michigan 3, H3 5, H5 19, H7 2.85, both B 5; blocked 9, 7, H5 10, H7 10, B Phuket 10, B Lee 11.5. Scores are scaled within each screen and are no affinities; replicates correlate at about 0.6 to 0.9, and antibodies rare in the pool are noisier.
Tests used:
[1] = target: H1 HA stem construct (mini-HA #4900); assay: mRNA display binding score; higher = more enriched on the antigen; details: antigen blocked with: nothing
Procedure: (§1)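 A pool of natively paired antibodies, displayed as scFv on mRNA, was selected once on antigen-coated beads and sequenced before and after; two replicates.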

[2] = target: H3 HA stem construct (H3ssF); assay: as above; details: antigen blocked with: nothing
Procedure: as §1

Binder | mRNA display binding score [1] | mRNA display binding score [2]
W85-2D08 (protein) chain 1: QVQLVQSGAEVKKPGASVKVSCKASGYSFTTFDINWVRQATGQGLEWVGWMNPNSGNTGYAQKFQGRVSMTRNTSKSTAYMELSSLTSEDTAVYFCARGVGFCDTTSCYGSWFDPWGQGTLVTVSS chain 2: EIVMTQSPATLSVSPGERATLSCWASQNVSSNLAWYQQKPGQAPRLLIYGATTRATGVPARFSGSGSRTEFTLTISSLQFEDFAVYYCQPYSNWRPITFGQGTRLEIK | inactive: -0.977 | inactive: -0.908
AG6-3E02 (protein) chain 1: QLQESGPRLVRPSETLSLTCTVSGGSISSSTYYWGWIRQPPGKGLEWIGSVFYSGTTYKIPSLNSRVTISIDTSKKEFSLTLTSVTAADTAVYYCARHTYNRGSWFDHPWNYFYGMDIWGQGTTVTVSS chain 2: DIQMTQSPSSLSASVGDRVTITCRASHNINNYLNWYQQKPGKPPKLLIYAASSLRSGVPSRFSGSGSETDFTLTISTLEPEDFVTYYCQQSFSTPFTFGQGTKVEIK | inactive: -0.195 | inactive: 0.468
008-10-5E02 (protein) chain 1: EVQLVESGGGLVRPGGSLRLSCAASEINVRNVWMSWVRQAPGKGPEWVGRIKREKDGGTIDYAAPVKGRFTISRDASKNMLFLLMESLQTEDTAVYYCTTDFLESLLLGSGPPRETGHFDTWGQGTLVTVSS chain 2: DIQMTQSPSSLSASVGDRVTITCRASQSISTYLNWYQRKPGKAPKFLIYAASNLQSGVPSRFSGSGSGTDFTLTISNLQPEDFATYYCQQSYSTPSWTFGQGTKVEIK | inactive: 0.826 | inactive: 7.99
240-14-IgG-2E03 (protein) chain 1: QVQLQEWGAGLLKPSETLSLTCAVSGDSFSDYYWSWIRQPPGKGLEWIGEVYHDGSTNYNPSLKSRVTISIDTSKNQFSLKLTSVTAADTAVYFCARGVLGELTAIHFDYWGQGALVTVSS chain 2: EIVMTQSPATLSVSPGERATLSCRASQSVSSLLVWYQQKPGQTPRLLIYGASTRAPGIPARFSGSGSGTEFTLTISSLQSEDFAVYYCQQWYTFGQGTKVEIK | inactive: 0.687 | inactive: 0.0201
039-10-5C05 (protein) chain 1: QVQLVESGGGLVQPGRSLRLSCAASGFSLSTYPMHWVRQAPGKGLDWVATMSYDGSHKDYADSVKGRFTISTDTSKNTLYLQMNSLRTDDTAVYYCARPRGGGYNYFRADSFDSWGQGTLVTVSS chain 2: DIQMTQSPSSLSASVGDRVTITCRTSQRVSTYLNWYQQKPGKSPKLLIYLASSLQSGVPSRFSGSGSGTDFSLTISSLQPEDFATYYCQQSYSMPLTFGGGTKVEIK | inactive: -0.808 | inactive: -0.711
C1-2-E05 (protein) chain 1: VQLVESGGGLVQPGGSLRLSCAASGFSFSLYSMNWVRQAPGKRLEWISYISSSSGTKLYADSVKGRLTTSRDNAKSSLYLQMTNLRPEDTAVYYCVREEVIVGGIPFDYWGQGALVTVSS chain 2: EIVMTQSPSTLSVSPGARATLSCRASQSVGSSLAWYQQKPGQPPRLLIFGASTRATGVPARFSGSGYGTEFTLTISSLQSEDSAVYHCHQYHDWPPWTFGQGTKVEIK | inactive: 0.915 | inactive: -0.0318
AG13-3F04 (protein) chain 1: VQLVQSGAEMQKPGASVKVSCKASGFTFTGFYLHWVRQAPGQGLEWMGWINLNSGDTDTAQKFQGRVTMTSDTSISTAYMDLSSLKSDDTAVYYCATWYISGWYDGMDVWGQGTTVTVSS chain 2: DIVMTQSPLSLPVTPGEAASISCRSSQSLLNTNGYTYLDWFLQKPGQSPQLLIYLGFNRASGVPDRFSGSGSGTYFTLKISRVEAEDVGVYYCMQALQTPRTFGQGTKVEIK | inactive: 0.431 | inactive: -0.00154
R95-2G12 (protein) chain 1: EVQLVESGGDLVQPGRSLRLSCAASGFSFDEYAMHWVRQPPGKGLEWVSGINWDGHSMAYADSVKGRFTISRDNAKNSLYLQMHSLRPEDTAFYYCAKSSYGLVAPNWFDPWGPGTLVTVSS chain 2: DIQMTQSPSSLSASVGDRVTITCRASQSIISYLNWYQQKPGKAPKLLIYDASILQGGVPSRFSGSGSGTDFTLTISGVQPEDFATYYCQQSYSAPVSFGQGTKLDIK | inactive: -1.18 | inactive: -0.818
16.p.01 (protein) chain 1: QVQLVQSGAEVKRPGASVNVSCKTSGYTFTDYYMHWVRQAPGQGLEWMGWINPNNGGTNYAQRFQGRVTMTRDTSLSTVYMELTSLRSDDTAVYYCATYYFESSGYFRLDYWGRGTLVTVSS chain 2: DIQMTQSPSSLSASVGTRVPITSRASKSIARFLNRNQQKPGRAPKFMIYYASIWERGGPSRFSGGGSGTDFNFTISVLQPEDFATYYCQQSNSAPTTSGQGNKIEIK | inactive: 0.282 | inactive: 0.196
antibody 3A03 (protein) chain 1: VQLVESGGGLVQPGGSLRLSCAASGFSFSSYRMNWVRQAPGKGLQWVSYISQSGGTVYYADSVKGRFTISRDNAKNSLYLQMISLRDEDTAVYFCARDEWADDYGNYYLDYWGQGTLVTVSS chain 2: EIVLTQSPATLSLSPGERATLSCRASQSVSSFLAWYQKKPGQAPRLLIYDAFNRATGVPARFSGSGSGTDFTLTISSLEPEDFAVYYCQQRSNWPPLTFGGGTKVEIK | inactive: 0.101 | inactive: -0.312

From the supplement of paper PMC11383711
